The values below come from PubChem BioAssay AID1508642 (National Center for Advancing Translational Sciences (NCATS), 2021).

Among all 43,000 compounds or so, about 200 (0.47%) were called active. Inconclusive results (about 12%) are left out. Calls follow the shape of the dose curve; as a rule, active = well fitted cell-killing curve with a large enough effect; inconclusive = small, poorly fitted or top-dose-only effect, or effect the other way; inactive = flat fitted curve, though single readings scatter. The list shows a part of the results.
% is scaled to controls: 0 for no effect and ±100 for the full control effect.

This experiment in a line: Cell viability qHTS assay in S16 Pmp22-F2sN cells. Also: nearly all actives have a fitted effect of over 65% in size. Conditions: S16 Pmp22-F2sN Schwann cells (luciferase reporters placed in the Pmp22 gene) viability, CellTiter-Glo, 24 h; series mostly up to 57.5 µM; activity change, negative = cytotoxicity: at the top concentration. The procedure, abridged:
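Luminescence from CellTiter-Glo, read by CCD camera after a 15 min room-temperature incubation, served as the viability signal. Reporter Schwann cells (S16 Pmp22-F2sN) had been treated with pin-transferred compounds for 24 h at 37C.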
A general note: In qHTS, concentration-response curves come from the screen itself.
In the case of `COc1ccccc1NC(=O)C1=C(C)Nc2nc(SCc3ccccc3)nn2C1c1cccnc1` (centres undefined), the “activity change, negative = cytotoxicity” value is inactive: 5.39%.
For `O=C(Nc1ccccc1)C1CCN(S(=O)(=O)c2ccc3[nH]c4c(c3c2)CCCCC4)CC1` the value was inactive: -16%; for `COc1ccc(CCNC(=O)CCn2c(=O)c3ccccc3n(CC(=O)Nc3ccc(C)cc3C)c2=O)cc1OC`, inactive: -8.93%; for `CCCOC(=O)c1ccc(Cn2nnc3sc4c(c3c2=O)CCC(C)C4)cc1` (centres undefined), inactive: 9.35%.
With `CCOc1ccc(NC(=O)c2cc(S(=O)(=O)N3CCOCC3)ccc2F)cc1`, the “activity change, negative = cytotoxicity” value is inactive: -0.866%.
For `COc1ccccc1CNC(=O)c1cnc(N2CCCC2)nc1C` the value was inactive: 3.96%; for `COc1ccc(-c2cn3nc(SCC(=O)Nc4ccc(C)c(Cl)c4)ccc3n2)cc1`, inactive: 6.5%; for `Cc1ccc(NC(c2ccc(Cl)cc2)c2nnc(-c3cccc(F)c3)o2)cc1C` (centres undefined), inactive: 0.845%.
Under `COC(=O)c1ccc(NC(=O)CN2C(=O)c3cccc4cccc2c34)cc1` stands inactive: 5.31%; under `O=C(CSc1nc2c([nH]c3ccccc32)c(=O)n1-c1ccc(Cl)cc1)N1CCCC1`, inactive: 12.2%.
Under `Cc1cc(C)c(NC(=O)COc2ccc3c(C)cc(=O)oc3c2)c(C)c1` stands inactive: -8.52%; under `O=S(=O)(NCC(Nc1ccc(Cl)cc1)c1ccccc1)c1ccccc1` (centres undefined), inactive: -26.2%.
Regarding `CCN(CCCNC(=O)c1cc(Nc2ccccc2OC)nc2ccccc12)c1cccc(C)c1`, the “activity change, negative = cytotoxicity” value is inactive: 12%.
For `COc1ccc(-c2noc(C3CC(=O)N(c4ccccc4)C3)n2)c(OC)c1` (centres undefined) the value was inactive: -0.0677%; for `Cc1cc(C)cc(NC(=O)c2cccc3c2C(=O)N(C2CCCCC2)C3)c1`, inactive: 17.3%.
Under `O=C(COc1ccccc1[N+](=O)[O-])Nc1ccc(-c2nc3ccccc3s2)cc1` stands inactive: 2.72%; under `CCc1nn(CC(=O)NCc2ccccc2Cl)c(=O)c2cccn12`, inactive: 2.32%.
For `COc1ccc(CCNC(=O)c2ccc3c(c2)N(Cc2ccc(F)cc2)CCS3)cc1OC` the value was inactive: -29.6%; for `Cc1nc(-c2ccc(S(=O)(=O)Nc3ccc(C)c(N(C)C)c3)cc2)co1`, inactive: -14.7%; for `Cc1nc(SCC(=O)Nc2ccccc2F)[nH]c(=O)c1Cc1ccccc1`, inactive: 8.1%.
Turning to `O=S(=O)(c1ccccc1)c1nc(-c2cccs2)oc1SCc1ccc(F)cc1`, the “activity change, negative = cytotoxicity” value was inactive: 0.555%.
Take `COc1ccc(S(=O)(=O)c2cc(NS(=O)(=O)c3ccc(Cl)cc3)c(C)c(C)c2O)cc1`: the “activity change, negative = cytotoxicity” value is inactive: 6.61%.
For `Fc1cccc(-n2ncc3c2ncn2nc(-c4ccccc4Cl)nc32)c1` the value was inactive: -13.2%; for `O=C(Cn1c(=O)c2cccn2c2ccc(F)cc21)N1CCN(c2ccc(F)cc2)CC1`, inactive: 2.48%.
Under `Cc1cccc(N2CCN(C(=O)CCn3c(=O)c4cccn4c4cccnc43)CC2)c1C` stands inactive: 8.22%; under `O=C(COc1ccccc1)Nc1cccc(-c2cn3cccnc3n2)c1`, inactive: -0.975%.
Under `CCOc1ccc(N(C)C(CNS(=O)(=O)c2ccccc2)c2ccccc2)cc1` (centres undefined) stands inactive: 1.87%; under `Cc1c(C(=O)Nc2ccc(F)cc2)sc2nc[nH]c(=O)c12`, inactive: 4.18%.
Regarding `CC(C)CCn1c(=O)c2sccc2n2c(CCCC(=O)NCc3ccc(F)cc3)nnc12`, the “activity change, negative = cytotoxicity” value is inactive: 21%.
Under `COc1ccccc1N1CCN(C(=O)c2cc(-c3ccccc3O)on2)CC1` stands inactive: 13.3%; under `N#Cc1cccc(NC(=O)c2cc3c(s2)-c2ccc(Cl)cc2SC3)c1`, inactive: -1.65%; under `Cc1ccn2c(=O)c(C(=O)NC(C)c3ccccc3)c(O)nc2c1` (centres undefined), inactive: 5.76%.
For `CCOc1ccccc1CNC(=O)c1cccn1-c1nnc(N2CCCCC2)s1` the value was inactive: -8.57%; for `Cc1ccc2c(=O)cc(C(=O)Nc3ccc(S(=O)(=O)N(C)Cc4ccccc4)cc3)oc2c1`, inactive: -2.32%.
For `CCN(CC)S(=O)(=O)c1ccc2c(c1)c(=O)c(C(=O)N1CCN(c3cccc(C)c3)C(C)C1)cn2C` (centres undefined) the value was inactive: -2.39%; for `Cc1ccc(CNC(=O)CN(c2ccc(C)cc2)S(=O)(=O)c2c(C)nn(C)c2C)cc1`, inactive: -1.32%.
As for `O=C(Nc1nnc(S(=O)(=O)N2CCCc3ccccc32)s1)c1ccccc1`, the “activity change, negative = cytotoxicity” value was inactive: -1.46%.
For `COC(=O)c1cnn2c(C)c(Cc3c(C)cc(C)cc3C)c(C)nc12` the value was inactive: -9.93%; for `COc1ccc(NC(=O)CCn2c(=O)c3cccn3c3ccccc32)c(OC)c1`, inactive: -0.739%.
Under `CCC1CN(C(=O)Nc2cccc3c2CCCC3)c2ccccc2O1` (centres undefined) stands inactive: -23%.
Under `COc1ccc(N2CC(NC(=O)C3CC3)CC2=O)cc1OC` (centres undefined) stands inactive: -2.58%; under `CC(=O)c1ccc(NC(=O)CN(C)S(=O)(=O)c2cccc3nsnc23)cc1`, inactive: -0.898%.
Regarding `CCCCn1c(C(C)NC(=O)c2ccccc2)nc2ccccc21` (centres undefined), the “activity change, negative = cytotoxicity” value is inactive: 5.89%.
As to `COC(=O)c1c(NC(=O)CS(=O)(=O)c2ccc(C)cc2)sc2c1CCCC2`, the “activity change, negative = cytotoxicity” value was inactive: -13.2%.
Under `Cc1ccc2oc(=O)c3cnn(CC(=O)N4CCN(c5ccccc5)CC4)c3c2c1` stands inactive: 0.393%; under `O=C(Nc1ccc(F)cc1F)c1cc2nc(-c3ccco3)cc(C(F)(F)Cl)n2n1`, inactive: -17.9%.
Under `Cc1cc(NC(=O)CCNS(=O)(=O)c2ccc3c(c2)oc(=O)n3C)ccc1Br` stands inactive: -14.3%.
Under `CCN(C(=O)Cn1nnc2sc(-c3ccccc3)cc2c1=O)c1cccc(C)c1` stands inactive: 8.64%; under `CCN(CC)C(=O)c1cc(-c2ccc(Cl)cc2)on1`, inactive: 8.35%.
